The supplement of paper PMC9446081
Screen size: about 39,000 compounds; about 220 (0.56%) showed activity. The list shows a part of the results.

What follows are compounds tested on Escherichia coli K-12 BW25113 (assay: relative growth (OD600 normalised to plate interquartile mean) (fraction); higher = less growth inhibition, active = 0.2 or less). Conditions: 50 µM; LB; incubation time: overnight (16-24 h).
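Further: static incubation at 37 °C against the wild-type strain, values averaged over two biological replicates.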

Question: How did the relative growth turn out when `C[C@@H]1CN([C@H](C)CO)C(=O)Cc2cc(NS(=O)(=O)c3cccs3)ccc2O[C@H]1CN(C)Cc1ccncc1` was run?
Answer: inactive: 1.01

Question: `C[C@@H]1CN([C@H](C)CO)C(=O)Cc2cc(NC(=O)Nc3ccc(F)cc3)ccc2O[C@H]1CN(C)Cc1ccc(Oc2ccccc2)cc1` was tested. Which relative growth did it give?
Answer: inactive: 1.02

Question: How did the relative growth turn out when `O=C(Cc1ccccn1)NCC[C@H]1CC[C@@H](NC(=O)CN2CCOCC2)[C@H](CO)O1` was run?
Answer: inactive: 1.02

Question: `Cc1cc2nc3c(=O)[nH]c(=O)nc-3n(C[C@H](O)[C@H](O)[C@H](O)CO)c2cc1C` was tested. Which relative growth did it give?
Answer: inactive: 0.937

Question: `c1nc(N2CCOCC2)nc(N2CCOCC2)n1` was tested. Which relative growth did it give?
Answer: inactive: 0.979

Question: `C[C@@H]1CCCCO[C@H](CN(C)S(=O)(=O)c2ccccc2)[C@H](C)CN([C@H](C)CO)C(=O)c2cc(NS(=O)(=O)c3ccc(Cl)cc3)ccc2O1` was tested. Which relative growth did it give?
Answer: inactive: 1.09

Question: For `Cc1ccc(S(=O)(=O)N(C)C[C@H]2Oc3ccc(NS(=O)(=O)c4c(C)noc4C)cc3C(=O)N([C@@H](C)CO)C[C@H]2C)cc1`, which relative growth is on record?
Answer: inactive: 1.01

Question: With `OCc1ccc(-c2cccs2)cc1` as the compound, how does the relative growth read?
Answer: inactive: 0.977

Question: How did the relative growth turn out when `Cc1ccc(S(=O)(=O)Nc2ccc3c(c2)C(=O)N([C@H](C)CO)C[C@@H](C)[C@H](CN(C)Cc2ccc4c(c2)OCO4)OCCCC[C@@H](C)O3)cc1` was run?
Answer: inactive: 0.992

Question: With `COc1ccc(NC(=O)N(C)C[C@@H]2Oc3c(NC(=O)C4CCOCC4)cccc3C(=O)N([C@@H](C)CO)C[C@H]2C)cc1` as the compound, how does the relative growth read?
Answer: inactive: 0.995

Question: For `C[C@H](CO)N1C[C@H](C)[C@@H](CN(C)C(=O)Nc2ccc(C(F)(F)F)cc2)OCCCC[C@H](C)Oc2ccc(NS(=O)(=O)c3cn(C)cn3)cc2C1=O`, which relative growth is on record?
Answer: inactive: 0.868

Question: For `CC(/C=C/C(=O)NO)=C\c1ccccc1OCc1cn(CC(=O)N2CCN(c3ccccc3)CC2)nn1`, which relative growth is on record?
Answer: inactive: 0.75

Question: How did the relative growth turn out when `C[C@@H]1CN([C@H](C)CO)C(=O)c2cc(NS(=O)(=O)c3cn(C)cn3)ccc2O[C@H]1CN(C)CC1CC1` was run?
Answer: inactive: 0.994

Question: With `COc1ccc(S(=O)(=O)N(C)C[C@@H]2Oc3ccc(NS(=O)(=O)c4cn(C)cn4)cc3CC(=O)N([C@@H](C)CO)C[C@@H]2C)cc1` as the compound, how does the relative growth read?
Answer: inactive: 0.984

Question: `COc1ccc(NC(=O)N(C)C[C@H]2Oc3ccc(NC(=O)CCCN(C)C)cc3C(=O)N([C@H](C)CO)C[C@H]2C)cc1` was tested. Which relative growth did it give?
Answer: inactive: 0.977

Question: For `Cc1ccc(S(=O)(=O)Nc2ccc3c(c2)CC(=O)N([C@H](C)CO)C[C@@H](C)[C@H](CN(C)S(=O)(=O)c2cn(C)cn2)O3)cc1`, which relative growth is on record?
Answer: inactive: 0.982

Question: Which relative growth does the source give for `COc1ccc(CN(C)C[C@H]2OCCCC[C@H](C)Oc3ccc(NC(=O)c4ccccc4)cc3C(=O)N([C@@H](C)CO)C[C@H]2C)cc1` here?
Answer: inactive: 0.992

Question: How did the relative growth turn out when `Cn1cccc1[C@@H](CN)N1CCCC1` was run?
Answer: inactive: 0.985

Question: For `C[C@@H]1CN([C@H](C)CO)C(=O)c2cc(NC(=O)c3ccccc3)ccc2O[C@@H](C)CCCCO[C@H]1CN(C)C(=O)C1CCCCC1`, which relative growth is on record?
Answer: inactive: 1

Question: How did the relative growth turn out when `CSC1=N[C@@]2(C)CCCC[C@@H]2c2c1ccc1ccccc21` was run?
Answer: inactive: 1.01

Question: For `CC12CCC3c4ccc(O)cc4CCC3C1CCC2OC(=O)CCC1CCCC1` (stereo unspecified), which relative growth is on record?
Answer: inactive: 1.18

Question: How did the relative growth turn out when `C[C@H]1CN([C@@H](C)CO)S(=O)(=O)c2ccc(-c3cccnc3)cc2O[C@@H]1CN(C)C(=O)NC1CCCC1` was run?
Answer: inactive: 1

Question: `COC(=O)C1=CO[C@@H](O[C@@H]2O[C@H](CO)[C@@H](O)[C@H](O)[C@H]2O)[C@H]2[C@@H]1[C@H](O)C[C@]2(C)O` was tested. Which relative growth did it give?
Answer: inactive: 0.981

Question: `C[C@@H]1CN([C@H](C)CO)C(=O)c2cccc(NC(=O)c3nc4ccccc4s3)c2O[C@H]1CN(C)Cc1ccc(Cl)c(Cl)c1` was tested. Which relative growth did it give?
Answer: inactive: 1.06

Question: With `C[C@@H]1CCCCO[C@H](CN(C)S(C)(=O)=O)[C@@H](C)CN([C@H](C)CO)C(=O)c2cc(NC(=O)Nc3ccc(C(F)(F)F)cc3)ccc2O1` as the compound, how does the relative growth read?
Answer: inactive: 1.06

Question: `O=C(C[C@@H]1CC[C@H]2[C@@H](COC[C@@H](O)CN2S(=O)(=O)c2ccc(Oc3ccccc3)cc2)O1)NCCN1CCCCC1` was tested. Which relative growth did it give?
Answer: inactive: 0.98

Question: Which relative growth does the source give for `CC(C)NC(=O)Nc1cccc2c1O[C@@H](CN(C)C(=O)NC1CCCCC1)[C@@H](C)CN([C@H](C)CO)C2=O` here?
Answer: inactive: 0.977

Question: How did the relative growth turn out when `CCNC(=O)C[C@H]1CC[C@@H](NC(=O)C2CC2)[C@@H](CO)O1` was run?
Answer: inactive: 1.02

Question: For `CC1(C)C[C@@](CCN)(Cc2ccccc2)CCO1`, which relative growth is on record?
Answer: inactive: 1.02

Question: Which relative growth does the source give for `C[C@H](CO)N1C[C@H](C)[C@@H](CN(C)C(=O)Nc2cccc3ccccc23)Oc2ccc(NC(=O)C3CCCCC3)cc2CC1=O` here?
Answer: inactive: 1

Question: Which relative growth does the source give for `CC(C)NC(=O)N(C)C[C@@H]1Oc2c(NS(=O)(=O)c3ccccc3)cccc2C(=O)N([C@@H](C)CO)C[C@@H]1C` here?
Answer: inactive: 1.03

Question: `C[C@@H]1CCCCO[C@@H](CN(C)C(=O)Nc2ccc(F)cc2)[C@H](C)CN([C@@H](C)CO)C(=O)c2cc(NC(=O)NC3CCCCC3)ccc2O1` was tested. Which relative growth did it give?
Answer: inactive: 1

Question: Which relative growth does the source give for `COCC#Cc1ccc2c(c1)O[C@@H](CN(C)C(=O)c1ccccc1F)[C@H](C)CN([C@@H](C)CO)S2(=O)=O` here?
Answer: inactive: 0.983

Question: How did the relative growth turn out when `O=C(NCO)c1ccc([N+](=O)[O-])cc1` was run?
Answer: inactive: 1.02

Question: For `C[C@@H]1CN([C@@H](C)CO)C(=O)Cc2cc(NS(=O)(=O)c3ccc(Cl)cc3)ccc2O[C@H]1CN(C)Cc1ccc(Oc2ccccc2)cc1`, which relative growth is on record?
Answer: inactive: 0.986

Question: With `Cc1c(O)c(=O)ccn1C` as the compound, how does the relative growth read?
Answer: inactive: 0.985

Question: With `COc1cccc(S(=O)(=O)Nc2ccc3c(c2)[C@H]2C[C@H](CC(=O)NCc4ccccc4F)O[C@H](CO)[C@H]2O3)c1` as the compound, how does the relative growth read?
Answer: inactive: 1.01

Question: How did the relative growth turn out when `Cn1cnc(S(=O)(=O)N2C[C@H](O)COC[C@H]3O[C@@H](CC(=O)NCc4ccc(F)cc4)CC[C@@H]32)c1` was run?
Answer: inactive: 0.976

Question: For `C[C@H](O)C#Cc1cnc2c(c1)C(=O)N([C@@H](C)CO)C[C@@H](C)[C@@H](CN(C)C(=O)Nc1ccc(C(F)(F)F)cc1)O2`, which relative growth is on record?
Answer: inactive: 0.997

Question: With `Cc1noc(C)c1NC(=O)N(C)C[C@@H]1Oc2ccc(NC(=O)Cn3cnnn3)cc2C(=O)N([C@H](C)CO)C[C@H]1C` as the compound, how does the relative growth read?
Answer: inactive: 1.01

Question: How did the relative growth turn out when `Cn1cnc(S(=O)(=O)N[C@H]2CC[C@@H](CC(=O)N3CCN(c4ccccc4)CC3)O[C@H]2CO)c1` was run?
Answer: inactive: 0.997

Question: `C[C@H]1CN([C@@H](C)CO)C(=O)Cc2cc(NC(=O)Nc3ccc(C(F)(F)F)cc3)ccc2O[C@H]1CN(C)C(=O)NC1CCCCC1` was tested. Which relative growth did it give?
Answer: inactive: 1.03

Question: `C[C@@H]1CN([C@H](C)CO)C(=O)Cc2cc(N(C)C)ccc2O[C@H]1CN(C)S(=O)(=O)c1ccc(Cl)cc1` was tested. Which relative growth did it give?
Answer: inactive: 0.998

Question: How did the relative growth turn out when `C[C@@H]1CN([C@@H](C)CO)C(=O)Cc2cc(NC(=O)Nc3ccc(C(F)(F)F)cc3)ccc2O[C@H]1CN(C)S(=O)(=O)c1ccc(Cl)cc1` was run?
Answer: inactive: 1.01

Question: For `COc1ccc2c3c(n(c2c1)C)[C@@H](CO)N(C[C@]13CN(C1)C(=O)C1CC1)C(=O)CN1CCOCC1`, which relative growth is on record?
Answer: inactive: 0.993

Question: `C[C@@H]1CN([C@H](C)CO)C(=O)c2cc(NS(=O)(=O)c3ccccc3)ccc2O[C@@H](C)CCCCO[C@H]1CN(C)C(=O)Nc1ccc(F)cc1` was tested. Which relative growth did it give?
Answer: inactive: 1

Question: Which relative growth does the source give for `C[C@@H]1CN([C@@H](C)CO)C(=O)c2cc(C#C[C@@H](C)O)cnc2O[C@H]1CN(C)Cc1cncnc1` here?
Answer: inactive: 0.996

Question: How did the relative growth turn out when `Cc1ccc(-c2cnc3c(c2)C(=O)N([C@@H](C)CO)C[C@@H](C)[C@H](CN(C)C(=O)Cc2ccncc2)O3)cc1` was run?
Answer: inactive: 0.996

Question: How did the relative growth turn out when `O=C(N[C@@H](c1cccnc1)c1ccc2c(c1)OCO2)C1CCN(CCOc2ccc(Cl)cc2Cl)CC1` was run?
Answer: inactive: 0.975

Question: How did the relative growth turn out when `Cc1noc(C)c1NC(=O)Nc1ccc2c(c1)C(=O)N([C@@H](C)CO)C[C@@H](C)[C@H](CN(C)Cc1ccc3c(c1)OCO3)OCCCC[C@H](C)O2` was run?
Answer: inactive: 1.02

Question: With `COc1ccc(NC(=O)N(C)C[C@@H]2Oc3ncc(C#CCN(C)C)cc3C(=O)N([C@H](C)CO)C[C@H]2C)cc1` as the compound, how does the relative growth read?
Answer: inactive: 0.977

Question: For `Cc1ccc2sc(C(=O)O)cc2c1`, which relative growth is on record?
Answer: inactive: 0.985

Question: For `COc1ccc([Si](C)(C)[C@H]2[C@H](CCO)O[C@@]3(C(=O)N(Cc4ccccc4)c4ccc(N(C=O)c5ccccc5)cc43)[C@@H]2C)cc1`, which relative growth is on record?
Answer: inactive: 1.03

Question: For `C/C=C/c1ccc2c(c1)O[C@H](CN(C)Cc1ccc(C(=O)O)cc1)[C@H](C)CN([C@@H](C)CO)S2(=O)=O`, which relative growth is on record?
Answer: inactive: 0.998

Question: `CCCC(=O)Nc1ccc2c(c1)OC[C@H](C)N(Cc1ccc(-c3ccccn3)cc1)C[C@@H](C)[C@H](OC)CN(C)C2=O` was tested. Which relative growth did it give?
Answer: inactive: 0.999

Question: `C[C@@H]1CN([C@@H](C)CO)C(=O)c2cc(NC(=O)CCN3CCOCC3)ccc2O[C@@H]1CN(C)S(=O)(=O)c1cccs1` was tested. Which relative growth did it give?
Answer: inactive: 1

Question: How did the relative growth turn out when `C[C@@H]1CN([C@@H](C)CO)C(=O)c2cc(NC(=O)Nc3ccc4c(c3)OCO4)ccc2O[C@H]1CN(C)Cc1ccc(C(=O)Nc2ccccc2N)cc1` was run?
Answer: inactive: 1.02

Question: Which relative growth does the source give for `Cc1noc(C)c1NC(=O)N(C)C[C@@H]1Oc2ccc(NC(=O)CCN3CCOCC3)cc2CC(=O)N([C@@H](C)CO)C[C@@H]1C` here?
Answer: inactive: 1.01

Question: With `COc1ccc(S(=O)(=O)N(C)C[C@@H]2OCCCC[C@H](C)Oc3ccc(NC(=O)CCC(F)(F)F)cc3C(=O)N([C@H](C)CO)C[C@H]2C)cc1` as the compound, how does the relative growth read?
Answer: inactive: 1.02

Question: With `C[C@@H]1CN([C@@H](C)CO)C(=O)Cc2cc(NC(=O)C3CCCCC3)ccc2O[C@H]1CN(C)S(C)(=O)=O` as the compound, how does the relative growth read?
Answer: inactive: 0.957

Question: With `C[C@H](CO)N1C[C@H](C)[C@H](CN(C)S(=O)(=O)c2cn(C)cn2)Oc2c(NC(=O)CCCCCC(=O)Nc3ccccc3N)cccc2C1=O` as the compound, how does the relative growth read?
Answer: inactive: 1
